The other results are listed elsewhere or left out. The list includes weakly bound sequences.
These sequences were tested against T1, MBP-FoxP3dN (UniProt Q99JB6) (assay: PD-seq (MBP pull-down with sequencing)). Conditions: 20 mM Tris-HCl pH 7.5, 100 mM NaCl, 1.5 mM MgCl2, 0.4 uM protein, 0.1 uM dsDNA library, 30 min, room temperature, amylose pull-down; high values mean tight binding; double strand, one strand shown.
T1 sequence: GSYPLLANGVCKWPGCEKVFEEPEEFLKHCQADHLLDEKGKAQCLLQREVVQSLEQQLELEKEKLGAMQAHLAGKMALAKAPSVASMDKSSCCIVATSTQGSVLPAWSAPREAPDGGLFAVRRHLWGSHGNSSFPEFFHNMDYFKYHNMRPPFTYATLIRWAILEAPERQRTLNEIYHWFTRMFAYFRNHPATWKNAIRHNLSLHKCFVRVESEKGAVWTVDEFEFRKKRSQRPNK

Q: “GATGATTGTTCTCCCAGCTGATGAATTATGCGTCTCGAGTAAACAAATTTTCCTAATCTTTCTGTTCAAGCGCCATCTAC” was tested. Which binding signal (RPM ratio (pull-down/input)) did it give?
A: Its binding signal (RPM ratio (pull-down/input)) is 5.32.

Q: “GATGATTGTTCTCCCAGCTGATGAATTCATCACTTCGAGTAAACAAATTTTCCTAATCTTTCTGTTCAAGCGCCATCTAC” was tested. Which binding signal (RPM ratio (pull-down/input)) did it give?
A: The binding signal (RPM ratio (pull-down/input)) was 1.28.

Q: Which binding signal (RPM ratio (pull-down/input)) does the source give for “GATGATTGTTCTCCCAGCTGATGAATTCCGCGAATCGAGTAAACAAATTTTCCTAATCTTTCTGTTCAAGCGCCATCTAC” here?
A: The binding signal (RPM ratio (pull-down/input)) was 0.245.

Q: With “GATGATTGTTCTCCCAGCTGATGAATTCCGCCCATCGAGTAAACAAATTTTCCTAATCTTTCTGTTCAAGCGCCATCTAC” as the sequence, how does the binding signal (RPM ratio (pull-down/input)) read?
A: Its binding signal (RPM ratio (pull-down/input)) is 1.79.

Q: With “GATGATTGTTCTCCCAGCTGATGAATTTGGTTTGTCGAGTAAACAAATTTTCCTAATCTTTCTGTTCAAGCGCCATCTAC” as the sequence, how does the binding signal (RPM ratio (pull-down/input)) read?
A: The binding signal (RPM ratio (pull-down/input)) was 4.05.

Q: With “GATGATTGTTCTCCCAGCTGATGAATTCTCTGATTCGAGTAAACAAATTTTCCTAATCTTTCTGTTCAAGCGCCATCTAC” as the sequence, how does the binding signal (RPM ratio (pull-down/input)) read?
A: Its binding signal (RPM ratio (pull-down/input)) is 0.225.

Q: “GATGATTGTTCTCCCAGCTGATGAATTTCTGTGTTCGAGTAAACAAATTTTCCTAATCTTTCTGTTCAAGCGCCATCTAC” was tested. Which binding signal (RPM ratio (pull-down/input)) did it give?
A: Its binding signal (RPM ratio (pull-down/input)) is 0.716.

Q: “GATGATTGTTCTCCCAGCTGATGAATTCCGCAAGTCGAGTAAACAAATTTTCCTAATCTTTCTGTTCAAGCGCCATCTAC” was tested. Which binding signal (RPM ratio (pull-down/input)) did it give?
A: The binding signal (RPM ratio (pull-down/input)) was 2.2.

Q: How did the binding signal (RPM ratio (pull-down/input)) turn out when “GATGATTGTTCTCCCAGCTGATGAATTAGATAAATCGAGTAAACAAATTTTCCTAATCTTTCTGTTCAAGCGCCATCTAC” was run?
A: The binding signal (RPM ratio (pull-down/input)) was 0.313.

Q: “GATGATTGTTCTCCCAGCTGATGAATTAAAGTGGTCGAGTAAACAAATTTTCCTAATCTTTCTGTTCAAGCGCCATCTAC” was tested. Which binding signal (RPM ratio (pull-down/input)) did it give?
A: The binding signal (RPM ratio (pull-down/input)) was 0.348.

Q: Which binding signal (RPM ratio (pull-down/input)) does the source give for “GATGATTGTTCTCCCAGCTGATGAATTAAGCAATTCGAGTAAACAAATTTTCCTAATCTTTCTGTTCAAGCGCCATCTAC” here?
A: The binding signal (RPM ratio (pull-down/input)) was 4.27.

Q: Which binding signal (RPM ratio (pull-down/input)) does the source give for “GATGATTGTTCTCCCAGCTGATGAATTCGTAAGTTCGAGTAAACAAATTTTCCTAATCTTTCTGTTCAAGCGCCATCTAC” here?
A: Its binding signal (RPM ratio (pull-down/input)) is 0.449.

Q: With “GATGATTGTTCTCCCAGCTGATGAATTCAGTACATCGAGTAAACAAATTTTCCTAATCTTTCTGTTCAAGCGCCATCTAC” as the sequence, how does the binding signal (RPM ratio (pull-down/input)) read?
A: The binding signal (RPM ratio (pull-down/input)) was 0.561.

Q: How did the binding signal (RPM ratio (pull-down/input)) turn out when “GATGATTGTTCTCCCAGCTGATGAATTCCGAAGGTCGAGTAAACAAATTTTCCTAATCTTTCTGTTCAAGCGCCATCTAC” was run?
A: Its binding signal (RPM ratio (pull-down/input)) is 0.222.

Q: “GATGATTGTTCTCCCAGCTGATGAATTTTAAGGTTCGAGTAAACAAATTTTCCTAATCTTTCTGTTCAAGCGCCATCTAC” was tested. Which binding signal (RPM ratio (pull-down/input)) did it give?
A: The binding signal (RPM ratio (pull-down/input)) was 0.337.

Q: For “GATGATTGTTCTCCCAGCTGATGAATTGAGCACATCGAGTAAACAAATTTTCCTAATCTTTCTGTTCAAGCGCCATCTAC”, which binding signal (RPM ratio (pull-down/input)) is on record?
A: The binding signal (RPM ratio (pull-down/input)) was 0.724.

Q: “GATGATTGTTCTCCCAGCTGATGAATTCACCGGGTCGAGTAAACAAATTTTCCTAATCTTTCTGTTCAAGCGCCATCTAC” was tested. Which binding signal (RPM ratio (pull-down/input)) did it give?
A: The binding signal (RPM ratio (pull-down/input)) was 0.179.

Q: How did the binding signal (RPM ratio (pull-down/input)) turn out when “GATGATTGTTCTCCCAGCTGATGAATTCGCCGCATCGAGTAAACAAATTTTCCTAATCTTTCTGTTCAAGCGCCATCTAC” was run?
A: The binding signal (RPM ratio (pull-down/input)) was 0.966.

Q: How did the binding signal (RPM ratio (pull-down/input)) turn out when “GATGATTGTTCTCCCAGCTGATGAATTCTTCCCCTCGAGTAAACAAATTTTCCTAATCTTTCTGTTCAAGCGCCATCTAC” was run?
A: Its binding signal (RPM ratio (pull-down/input)) is 0.198.

Q: For “GATGATTGTTCTCCCAGCTGATGAATTTGCGCCCTCGAGTAAACAAATTTTCCTAATCTTTCTGTTCAAGCGCCATCTAC”, which binding signal (RPM ratio (pull-down/input)) is on record?
A: The binding signal (RPM ratio (pull-down/input)) was 1.11.

Q: For “GATGATTGTTCTCCCAGCTGATGAATTCCGGTCCTCGAGTAAACAAATTTTCCTAATCTTTCTGTTCAAGCGCCATCTAC”, which binding signal (RPM ratio (pull-down/input)) is on record?
A: Its binding signal (RPM ratio (pull-down/input)) is 0.37.

Q: How did the binding signal (RPM ratio (pull-down/input)) turn out when “GATGATTGTTCTCCCAGCTGATGAATTCGGCTGGTCGAGTAAACAAATTTTCCTAATCTTTCTGTTCAAGCGCCATCTAC” was run?
A: Its binding signal (RPM ratio (pull-down/input)) is 0.525.

Q: “GATGATTGTTCTCCCAGCTGATGAATTAGTATCATCGAGTAAACAAATTTTCCTAATCTTTCTGTTCAAGCGCCATCTAC” was tested. Which binding signal (RPM ratio (pull-down/input)) did it give?
A: The binding signal (RPM ratio (pull-down/input)) was 2.19.

Q: “GATGATTGTTCTCCCAGCTGATGAATTTTCCATCTCGAGTAAACAAATTTTCCTAATCTTTCTGTTCAAGCGCCATCTAC” was tested. Which binding signal (RPM ratio (pull-down/input)) did it give?
A: Its binding signal (RPM ratio (pull-down/input)) is 0.27.

Q: How did the binding signal (RPM ratio (pull-down/input)) turn out when “GATGATTGTTCTCCCAGCTGATGAATTTGACGCATCGAGTAAACAAATTTTCCTAATCTTTCTGTTCAAGCGCCATCTAC” was run?
A: Its binding signal (RPM ratio (pull-down/input)) is 1.22.

Q: With “GATGATTGTTCTCCCAGCTGATGAATTTGGAAGGTCGAGTAAACAAATTTTCCTAATCTTTCTGTTCAAGCGCCATCTAC” as the sequence, how does the binding signal (RPM ratio (pull-down/input)) read?
A: The binding signal (RPM ratio (pull-down/input)) was 0.225.

Q: “GATGATTGTTCTCCCAGCTGATGAATTACATTTGTCGAGTAAACAAATTTTCCTAATCTTTCTGTTCAAGCGCCATCTAC” was tested. Which binding signal (RPM ratio (pull-down/input)) did it give?
A: Its binding signal (RPM ratio (pull-down/input)) is 1.61.

Q: Which binding signal (RPM ratio (pull-down/input)) does the source give for “GATGATTGTTCTCCCAGCTGATGAATTCATGCGCTCGAGTAAACAAATTTTCCTAATCTTTCTGTTCAAGCGCCATCTAC” here?
A: The binding signal (RPM ratio (pull-down/input)) was 0.943.

Q: Which binding signal (RPM ratio (pull-down/input)) does the source give for “GATGATTGTTCTCCCAGCTGATGAATTGATGACATCGAGTAAACAAATTTTCCTAATCTTTCTGTTCAAGCGCCATCTAC” here?
A: Its binding signal (RPM ratio (pull-down/input)) is 1.05.

Q: With “GATGATTGTTCTCCCAGCTGATGAATTGACACACTCGAGTAAACAAATTTTCCTAATCTTTCTGTTCAAGCGCCATCTAC” as the sequence, how does the binding signal (RPM ratio (pull-down/input)) read?
A: The binding signal (RPM ratio (pull-down/input)) was 0.655.

Q: How did the binding signal (RPM ratio (pull-down/input)) turn out when “GATGATTGTTCTCCCAGCTGATGAATTAGGCTAGTCGAGTAAACAAATTTTCCTAATCTTTCTGTTCAAGCGCCATCTAC” was run?
A: Its binding signal (RPM ratio (pull-down/input)) is 0.876.

Q: With “GATGATTGTTCTCCCAGCTGATGAATTTGGAGGGTCGAGTAAACAAATTTTCCTAATCTTTCTGTTCAAGCGCCATCTAC” as the sequence, how does the binding signal (RPM ratio (pull-down/input)) read?
A: Its binding signal (RPM ratio (pull-down/input)) is 0.55.

Reference: article PMC12820563
